# Measurements taken from the supplement of paper PMC8728848.
# This is one part of the list.
# Key:
# Assay in all cases: glycan array binding signal (z-score within array); higher = stronger binding
# Conditions in all cases: glycan notation: IUPAC condensed, linker removed
# [1] = target: Gal(b1-4)GlcNAc(b1-6)[Gal(b1-3)]GalNAc
# Procedure, shortened: (§1)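 Columns mapping to the same glycan were averaged after glycan names were converted to IUPAC-condensed notation. The data come from 3228 arrays in the Consortium for Functional Glycomics database, limited to those with an available protein sequence. Binding is reported as a within-array Z-score averaged across arrays of one protein sequence and across linkers.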
# Gal3S(b1-3)GalNAc = target: Gal3S(b1-3)GalNAc
# Procedure, shortened: as §1
# Gal3S(b1-3)GlcNAc = target: Gal3S(b1-3)GlcNAc
# Procedure, shortened: as §1
# [2] = target: Gal3S(b1-3)[Fuc(a1-4)]GlcNAc
# Procedure, shortened: as §1
# Gal3S(b1-4)Glc = target: Gal3S(b1-4)Glc
# Procedure, shortened: as §1
# Gal3S(b1-4)Glc6S = target: Gal3S(b1-4)Glc6S
# Procedure, shortened: as §1
# Gal3S(b1-4)GlcNAc = target: Gal3S(b1-4)GlcNAc
# Procedure, shortened: as §1
# Gal4S(b1-4)GlcNAc = target: Gal4S(b1-4)GlcNAc
# Procedure, shortened: as §1
# Gal6S(b1-4)Glc = target: Gal6S(b1-4)Glc
# Procedure, shortened: as §1
# Gal6S(b1-4)Glc6S = target: Gal6S(b1-4)Glc6S
# Procedure, shortened: as §1
# GalNAc(a1-3)Gal = target: GalNAc(a1-3)Gal
# Procedure, shortened: as §1
# GalNAc(a1-3)GalNAc = target: GalNAc(a1-3)GalNAc
# Procedure, shortened: as §1
# GalNAc(b1-3)GalNAc = target: GalNAc(b1-3)GalNAc
# Procedure, shortened: as §1
# GalNAc(b1-4)GlcNAc = target: GalNAc(b1-4)GlcNAc
# Procedure, shortened: as §1
# Glc(a1-4)Glc = target: Glc(a1-4)Glc
# Procedure, shortened: as §1
# Glc(b1-4)Glc = target: Glc(b1-4)Glc
# Procedure, shortened: as §1
# Glc(b1-6)Glc = target: Glc(b1-6)Glc
# Procedure, shortened: as §1
# [3] = target: GlcNAc(b1-2)Gal(b1-3)GalNAc
# Procedure, shortened: as §1
# GlcNAc(b1-3)Gal = target: GlcNAc(b1-3)Gal
# Procedure, shortened: as §1
# [4] = target: GlcNAc(b1-3)Gal(b1-3)GalNAc
# Procedure, shortened: as §1
# GlcNAc(b1-3)Gal(b1-4)Glc = target: GlcNAc(b1-3)Gal(b1-4)Glc
# Procedure, shortened: as §1
# [5] = target: GlcNAc(b1-3)Gal(b1-4)GlcNAc
# Procedure, shortened: as §1
# [6] = target: GlcNAc(b1-3)[GlcNAc(b1-6)]GalNAc
# Procedure, shortened: as §1
# [7] = target: GlcNAc(b1-3)[GlcNAc(b1-6)]GlcNAc(b1-4)GlcNAc
# Procedure, shortened: as §1
# [8] = target: GlcNAc(b1-4)GlcNAc(b1-4)GlcNAc
# Procedure, shortened: as §1
# [9] = target: GlcNAc(b1-4)[GlcNAc(b1-6)]GalNAc
# Procedure, shortened: as §1
# GlcNAc(b1-6)GalNAc = target: GlcNAc(b1-6)GalNAc
# Procedure, shortened: as §1
# Kdn(a2-3)Gal(b1-3)GlcNAc = target: Kdn(a2-3)Gal(b1-3)GlcNAc
# Procedure, shortened: as §1
# Kdn(a2-3)Gal(b1-4)GlcNAc = target: Kdn(a2-3)Gal(b1-4)GlcNAc
# Procedure, shortened: as §1
# [10] = target: Man(a1-2)Man(a1-2)Man(a1-3)Man
# Procedure, shortened: as §1
# [11] = target: Man(a1-2)Man(a1-2)Man(a1-6)[Man(a1-3)]Man
# Procedure, shortened: as §1
# Man(a1-2)Man(a1-3)Man = target: Man(a1-2)Man(a1-3)Man
# Procedure, shortened: as §1
# [12] = target: Man(a1-2)Man(a1-3)[Man(a1-2)Man(a1-6)]Man
# Procedure, shortened: as §1
# [13] = target: Man(a1-2)Man(a1-3)[Man(a1-2)Man(a1-6)]Man(a1-6)[Man(a1-2)Man(a1-2)Man(a1-3)]Man(b1-4)GlcNAc(b1-4)GlcNAc
# Procedure, shortened: as §1
# [14] = target: Man(a1-2)Man(a1-3)[Man(a1-2)Man(a1-6)]Man(a1-6)[Man(a1-3)[Man(a1-6)]Man(a1-6)]Man(b1-4)GlcNAc(b1-4)GlcNAc
# Procedure, shortened: as §1
# [15] = target: Man(a1-2)Man(a1-3)[Man(a1-6)]Man(a1-6)[Man(a1-2)Man(a1-3)]Man(b1-4)GlcNAc(b1-4)GlcNAc
# Procedure, shortened: as §1
# [16] = target: Man(a1-2)Man(a1-6)[Man(a1-3)]Man(a1-6)[Man(a1-2)Man(a1-2)Man(a1-3)]Man(b1-4)GlcNAc(b1-4)GlcNAc
# Procedure, shortened: as §1
# Man(a1-3)[Man(a1-6)]Man = target: Man(a1-3)[Man(a1-6)]Man
# Procedure, shortened: as §1
# [17] = target: Man(a1-3)[Man(a1-6)]Man(a1-6)[Man(a1-3)]Man(b1-4)GlcNAc(b1-4)GlcNAc
# Procedure, shortened: as §1
# Neu5Ac(a2-3)Gal = target: Neu5Ac(a2-3)Gal
# Procedure, shortened: as §1
# [18] = target: Neu5Ac(a2-3)Gal(b1-3)GalNAc
# Procedure, shortened: as §1
# [19] = target: Neu5Ac(a2-3)Gal(b1-3)GalNAc6S
# Procedure, shortened: as §1
binder,measurement,setting,value
"RegIIIbeta (Mus musculus), P35230 (protein) MLPPTACSVMSWMLLSCLMLLSQVQGEDSLKNIPSARISCPKGSQAYGSYCYALFQIPQTWFDAELACQKRPGGHLVSVLNSAEASFLSSMVKRTGNSYQYTWIGLHDPTLGAEPNGGGWEWSNNDVMNYFNWERNPSTALDRAFCGSLSRASGFLKWRDMTCEVKLPYVCKFTG",glycan array binding signal (z-score),[1],-0.101
same,glycan array binding signal (z-score),Gal3S(b1-3)GalNAc,-0.124
same,glycan array binding signal (z-score),Gal3S(b1-3)GlcNAc,-0.117
same,glycan array binding signal (z-score),[2],-0.098
same,glycan array binding signal (z-score),Gal3S(b1-4)Glc,-0.115
same,glycan array binding signal (z-score),Gal3S(b1-4)Glc6S,-0.105
same,glycan array binding signal (z-score),Gal3S(b1-4)GlcNAc,-0.11
same,glycan array binding signal (z-score),Gal4S(b1-4)GlcNAc,0.188
same,glycan array binding signal (z-score),Gal6S(b1-4)Glc,-0.116
same,glycan array binding signal (z-score),Gal6S(b1-4)Glc6S,-0.093
same,glycan array binding signal (z-score),GalNAc(a1-3)Gal,-0.109
same,glycan array binding signal (z-score),GalNAc(a1-3)GalNAc,-0.121
same,glycan array binding signal (z-score),GalNAc(b1-3)GalNAc,-0.103
same,glycan array binding signal (z-score),GalNAc(b1-4)GlcNAc,-0.106
same,glycan array binding signal (z-score),Glc(a1-4)Glc,-0.107
same,glycan array binding signal (z-score),Glc(b1-4)Glc,-0.117
same,glycan array binding signal (z-score),Glc(b1-6)Glc,0.031
same,glycan array binding signal (z-score),[3],-0.117
same,glycan array binding signal (z-score),GlcNAc(b1-3)Gal,-0.075
same,glycan array binding signal (z-score),[4],-0.096
same,glycan array binding signal (z-score),GlcNAc(b1-3)Gal(b1-4)Glc,-0.094
same,glycan array binding signal (z-score),[5],-0.09
same,glycan array binding signal (z-score),[6],-0.071
same,glycan array binding signal (z-score),[7],-0.018
same,glycan array binding signal (z-score),[8],-0.118
same,glycan array binding signal (z-score),[9],-0.093
same,glycan array binding signal (z-score),GlcNAc(b1-6)GalNAc,-0.125
same,glycan array binding signal (z-score),Kdn(a2-3)Gal(b1-3)GlcNAc,-0.012
same,glycan array binding signal (z-score),Kdn(a2-3)Gal(b1-4)GlcNAc,-0.018
same,glycan array binding signal (z-score),[10],-0.023
same,glycan array binding signal (z-score),[11],0.002
same,glycan array binding signal (z-score),Man(a1-2)Man(a1-3)Man,-0.056
same,glycan array binding signal (z-score),[12],-0.011
same,glycan array binding signal (z-score),[13],-0.045
same,glycan array binding signal (z-score),[14],-0.092
same,glycan array binding signal (z-score),[15],-0.058
same,glycan array binding signal (z-score),[16],-0.044
same,glycan array binding signal (z-score),Man(a1-3)[Man(a1-6)]Man,-0.112
same,glycan array binding signal (z-score),[17],-0.123
same,glycan array binding signal (z-score),Neu5Ac(a2-3)Gal,-0.124
same,glycan array binding signal (z-score),[18],-0.117
same,glycan array binding signal (z-score),[19],-0.107
